Consider 66 cell lines from the supplement of paper PMC4967469.

pIC50: −log10 of the molar value. IC50 is the fitted dose that halves viability relative to control wells, and lower means more sensitive; a limit (>, <) means that the fit lies beyond the doses tested. AUC, from the same fit, is the share of area under the viability curve across the 256-fold dose range; values near 1 show little effect. Where the top dose is marked as inferred, it was calculated from the reported fits. Where only a bound is given, the exact number is not on record here.

Compound in the assay: Cc1ccc(-c2c(C(=O)CF)n(CCCO)c3ncnc(N)c23)cc1 [FMK]
Kind of assay: Viability of human cancer cell lines after 72 h of drug (GDSC screen). To be noted: top dose inferred. As to the method: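 Human cancer cell lines in 384-well plates, medium with 10% serum, drug for 72 h over a 256-fold dose range (nine 2-fold or five 4-fold steps up to the top dose). Adherent lines were fixed and stained with the nucleic acid dye Syto60, suspension lines read with resazurin; signal relative to control wells, capped at 0 and 100%. One two-parameter sigmoid per drug and line, fitted in a mixed model over all curves with the slope shared within a line.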
By pIC50 is commonly meant the IC50 on a negative log10 scale, so that one unit is a factor of ten. On to “JIMT-1 (breast, adherent, top dose 20 µM)”, for which the AUC was 0.984 and the pIC50 is < 4.70.

As to “JJN-3 (haematopoietic neoplasm, suspension, top dose 20 µM)”, the AUC was 0.977 and the negative-log IC50 (pIC50) was < 4.70.

Take “JSC-1 (B-cell lymphoma, suspension, top dose 20 µM)”: the AUC came to 0.937 and the negative-log IC50 (pIC50) was < 4.70.

In the case of “JURL-MK1 (chronic myeloid leukaemia, suspension, top dose 20 µM)”, the AUC turned out to be 0.965 and the pIC50 was < 4.70.

For “JVM-2 (lymphoid neoplasm, suspension, top dose 20 µM)”, the AUC turned out to be 0.964 and the pIC50 was < 4.70.

Regarding “JVM-3 (lymphoid neoplasm, suspension, top dose 20 µM)”, the AUC came to 0.987 and the pIC50 is < 4.70.

Regarding “JiyoyeP-2003 (Burkitt lymphoma, suspension, top dose 20 µM)”, the AUC was 0.991 and the negative logarithm of the IC50 (pIC50) is < 4.70.

K2 (melanoma, adherent, top dose 20 µM): the AUC was determined as 0.976 and the negative-log IC50 (pIC50) was < 4.70.

For the cell line K5 (thyroid, adherent, top dose 20 µM), the AUC worked out at 0.988 and the negative logarithm of the IC50 (pIC50) was < 4.70.

Take “K-562 (chronic myeloid leukaemia, suspension, top dose 20 µM)”: the AUC amounted to 0.965 and the pIC50 is < 4.70.

Consider “KALS-1 (glioma, adherent, top dose 20 µM)”, for which the AUC was 0.962 and the negative-log IC50 (pIC50) is < 4.70.

Take “KARPAS-45 (lymphoblastic leukaemia, suspension, top dose 20 µM)”: the AUC worked out at 0.826 and the pIC50 is 5.02.

For the cell line “KARPAS-299 (anaplastic large cell lymphoma, suspension, top dose 20 µM)”, the AUC was 0.992 and the negative logarithm of the IC50 (pIC50) was < 4.70.

As to “KARPAS-422 (B-cell lymphoma, suspension, top dose 20 µM)”, the AUC came out at 0.985 and the pIC50 is < 4.70.

For the cell line “KARPAS-620 (haematopoietic neoplasm, suspension, top dose 20 µM)”, the AUC came out at 0.952 and the negative-log IC50 (pIC50) is < 4.70.

On to “KASUMI-1 (acute myeloid leukaemia, suspension, top dose 20 µM)”, for which the AUC was determined as 0.954 and the pIC50 was < 4.70.

Consider “KCL-22 (chronic myeloid leukaemia, suspension, top dose 20 µM)”, for which the AUC is 0.97 and the pIC50 is < 4.70.

In the case of “KE-37 (lymphoblastic leukaemia, suspension, top dose 20 µM)”, the AUC turned out to be 0.895 and the pIC50 is 4.85.

“KELLY (neuroblastoma, adherent, top dose 20 µM)”: the AUC amounted to 0.986 and the pIC50 is < 4.70.

Consider “KG-1 (acute myeloid leukaemia, suspension, top dose 20 µM)”, for which the AUC turned out to be 0.972 and the pIC50 is < 4.70.

Turning to KGN (ovary, adherent, top dose 20 µM), the AUC was determined as 0.925 and the pIC50 was < 4.70.

With “KINGS-1 (glioma, adherent, top dose 20 µM)”, the AUC worked out at 0.969 and the negative logarithm of the IC50 (pIC50) is < 4.70.

In the case of “KLE (endometrium, adherent, top dose 20 µM)”, the AUC is 0.966 and the pIC50 is < 4.70.

For “KM12 (large intestine, adherent, top dose 20 µM)”, the AUC turned out to be 0.982 and the pIC50 was < 4.70.

Consider “KM-H2 (Hodgkin lymphoma, suspension, top dose 20 µM)”, for which the AUC was found to be 0.989 and the pIC50 was < 4.70.

As for “KMH-2 (thyroid, adherent, top dose 10.24 µM)”, the AUC is 0.99 and the negative-log IC50 (pIC50) was < 4.99.

Consider “KMOE-2 (acute myeloid leukaemia, suspension, top dose 20 µM)”, for which the AUC is 0.953 and the pIC50 was < 4.70.

Turning to “KMRC-1 (kidney, adherent, top dose 20 µM)”, the AUC was 0.986 and the pIC50 was < 4.70.

“KMRC-20 (kidney, adherent, top dose 20 µM)”: the AUC was found to be 0.989 and the pIC50 was < 4.70.

In the case of “KMS-12-BM (myeloma, suspension, top dose 20 µM)”, the AUC was 0.972 and the pIC50 was < 4.70.

Turning to “KNS-42 (glioma, adherent, top dose 20 µM)”, the AUC amounted to 0.984 and the pIC50 was < 4.70.

Consider “KNS-81-FD (glioma, adherent, top dose 20 µM)”, for which the AUC was found to be 0.976 and the pIC50 is < 4.70.

For “KON (head and neck, adherent, top dose 20 µM)”, the AUC was 0.984 and the negative logarithm of the IC50 (pIC50) was < 4.70.

“KOPN-8 (B-cell leukaemia, suspension, top dose 20 µM)”: the AUC came to 0.958 and the pIC50 was < 4.70.

For the cell line “KP-1N (pancreas, adherent, top dose 10.24 µM)”, the AUC turned out to be 0.976 and the negative logarithm of the IC50 (pIC50) is < 4.99.

In the case of “KP-2 (pancreas, adherent, top dose 20 µM)”, the AUC turned out to be 0.985 and the pIC50 is < 4.70.

On to “KP-3 (pancreas, adherent, top dose 20 µM)”, for which the AUC is 0.944 and the pIC50 was < 4.70.

In the case of “KP-4 (pancreas, adherent, top dose 20 µM)”, the AUC is 0.893 and the pIC50 was < 4.70.

For the cell line KS-1 (glioma, adherent, top dose 20 µM), the AUC stood at 0.938 and the pIC50 was < 4.70.

Consider “KU812 (chronic myeloid leukaemia, suspension, top dose 20 µM)”, for which the AUC worked out at 0.97 and the pIC50 was < 4.70.

On to “KU-19-19 (bladder, adherent, top dose 20 µM)”, for which the AUC worked out at 0.987 and the pIC50 is < 4.70.

“KURAMOCHI (ovary, adherent, top dose 20 µM)”: the AUC stood at 0.976 and the pIC50 was < 4.70.

With “KY821 (leukaemia, suspension, top dose 20 µM)”, the AUC amounted to 0.982 and the pIC50 is < 4.70.

As for “KYSE-50 (oesophagus, adherent, top dose 20 µM)”, the AUC amounted to 0.99 and the pIC50 is < 4.70.

Regarding “KYSE-70 (oesophagus, adherent, top dose 20 µM)”, the AUC came to 0.984 and the negative logarithm of the IC50 (pIC50) is < 4.70.

Turning to “KYSE-150 (oesophagus, adherent, top dose 20 µM)”, the AUC was 0.971 and the pIC50 is < 4.70.

Turning to “KYSE-180 (oesophagus, adherent, top dose 20 µM)”, the AUC came out at 0.974 and the negative logarithm of the IC50 (pIC50) was < 4.70.

As to “KYSE-220 (oesophagus, adherent, top dose 20 µM)”, the AUC was found to be 0.928 and the negative logarithm of the IC50 (pIC50) is < 4.70.

As to “KYSE-270 (oesophagus, adherent, top dose 20 µM)”, the AUC turned out to be 0.981 and the pIC50 is < 4.70.

Regarding “KYSE-410 (oesophagus, adherent, top dose 20 µM)”, the AUC was 0.976 and the negative-log IC50 (pIC50) is < 4.70.

As to “KYSE-450 (oesophagus, adherent, top dose 20 µM)”, the AUC was 0.889 and the negative logarithm of the IC50 (pIC50) was < 4.70.

Regarding “KYSE-510 (oesophagus, adherent, top dose 20 µM)”, the AUC turned out to be 0.991 and the negative logarithm of the IC50 (pIC50) was < 4.70.

On to “KYSE-520 (oesophagus, adherent, top dose 20 µM)”, for which the AUC was 0.957 and the pIC50 was < 4.70.

As to “L-363 (myeloma, suspension, top dose 20 µM)”, the AUC amounted to 0.977 and the negative-log IC50 (pIC50) is < 4.70.

Take “L-428 (Hodgkin lymphoma, suspension, top dose 20 µM)”: the AUC was determined as 0.988 and the pIC50 was < 4.70.

“L-540 (Hodgkin lymphoma, suspension, top dose 20 µM)”: the AUC came out at 0.977 and the negative logarithm of the IC50 (pIC50) was < 4.70.

For the cell line “L-1236 (Hodgkin lymphoma, suspension, top dose 20 µM)”, the AUC came to 0.991 and the pIC50 is < 4.70.

Take “LAMA-84 (chronic myeloid leukaemia, suspension, top dose 20 µM)”: the AUC stood at 0.964 and the pIC50 was < 4.70.

For the cell line “LB373-MEL-D (melanoma, adherent, top dose 20 µM)”, the AUC came out at 0.988 and the negative-log IC50 (pIC50) was < 4.70.

For the cell line “LB647-SCLC (small cell lung carcinoma, semi-adherent, top dose 20 µM)”, the AUC amounted to 0.964 and the negative logarithm of the IC50 (pIC50) is < 4.70.

Consider “LB771-HNC (head and neck, adherent, top dose 20 µM)”, for which the AUC came to 0.979 and the pIC50 is < 4.70.

For “LB831-BLC (bladder, adherent, top dose 20 µM)”, the AUC was determined as 0.987 and the pIC50 is < 4.70.

As to “LB996-RCC (kidney, adherent, top dose 20 µM)”, the AUC was 0.98 and the negative logarithm of the IC50 (pIC50) is < 4.70.

Turning to “LB1047-RCC (kidney, adherent, top dose 20 µM)”, the AUC stood at 0.975 and the pIC50 is < 4.70.

Take “LB2241-RCC (kidney, adherent, top dose 20 µM)”: the AUC came out at 0.984 and the pIC50 is < 4.70.

For “LB2518-MEL (melanoma, adherent, top dose 20 µM)”, the AUC is 0.971 and the negative-log IC50 (pIC50) is < 4.70.
